Consider 31 sequences from paper PMC12820563.

This is one part of the list. The list includes weakly bound sequences.

For this assay, the target named is T1, MBP-FoxP3dN (UniProt Q99JB6).
T1 sequence: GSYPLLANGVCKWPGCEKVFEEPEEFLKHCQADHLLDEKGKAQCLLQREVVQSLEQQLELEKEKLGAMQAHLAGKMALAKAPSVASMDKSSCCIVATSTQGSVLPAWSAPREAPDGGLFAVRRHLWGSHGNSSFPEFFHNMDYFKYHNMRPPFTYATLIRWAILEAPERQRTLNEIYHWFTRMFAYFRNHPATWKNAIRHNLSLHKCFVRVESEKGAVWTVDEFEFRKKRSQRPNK
Description: PD-seq (MBP pull-down with sequencing). To be noted: 20 mM Tris-HCl pH 7.5, 100 mM NaCl, 1.5 mM MgCl2, 0.4 uM protein, 0.1 uM dsDNA library, 30 min, room temperature, amylose pull-down; high values mean tight binding; double strand, one strand shown.
As to “GATGATTGTTCTCCCAGCTGATGAATTCTGTGCATCGAGTAAACAAATTTTCCTAATCTTTCTGTTCAAGCGCCATCTAC”, the binding signal (RPM ratio (pull-down/input)) came out at 1.52.
Next, “GATGATTGTTCTCCCAGCTGATGAATTCCCTGAGTCGAGTAAACAAATTTTCCTAATCTTTCTGTTCAAGCGCCATCTAC”: 0.19; “GATGATTGTTCTCCCAGCTGATGAATTTGGCATCTCGAGTAAACAAATTTTCCTAATCTTTCTGTTCAAGCGCCATCTAC”: 6.36.
Next, “GATGATTGTTCTCCCAGCTGATGAATTGCATATTTCGAGTAAACAAATTTTCCTAATCTTTCTGTTCAAGCGCCATCTAC”: 1.3; “GATGATTGTTCTCCCAGCTGATGAATTGCAGTCCTCGAGTAAACAAATTTTCCTAATCTTTCTGTTCAAGCGCCATCTAC”: 0.703.
As to “GATGATTGTTCTCCCAGCTGATGAATTAGCTCTTTCGAGTAAACAAATTTTCCTAATCTTTCTGTTCAAGCGCCATCTAC”, the binding signal (RPM ratio (pull-down/input)) stood at 0.301.
With “GATGATTGTTCTCCCAGCTGATGAATTAGGTCCCTCGAGTAAACAAATTTTCCTAATCTTTCTGTTCAAGCGCCATCTAC”, the binding signal (RPM ratio (pull-down/input)) came to 0.377.
Regarding “GATGATTGTTCTCCCAGCTGATGAATTGATCGGATCGAGTAAACAAATTTTCCTAATCTTTCTGTTCAAGCGCCATCTAC”, the binding signal (RPM ratio (pull-down/input)) is 0.215.
Turning to “GATGATTGTTCTCCCAGCTGATGAATTTCCGTTTTCGAGTAAACAAATTTTCCTAATCTTTCTGTTCAAGCGCCATCTAC”, the binding signal (RPM ratio (pull-down/input)) was determined as 0.438.
With “GATGATTGTTCTCCCAGCTGATGAATTTGGGACATCGAGTAAACAAATTTTCCTAATCTTTCTGTTCAAGCGCCATCTAC”, the binding signal (RPM ratio (pull-down/input)) worked out at 0.516.
Take “GATGATTGTTCTCCCAGCTGATGAATTAACTTGTTCGAGTAAACAAATTTTCCTAATCTTTCTGTTCAAGCGCCATCTAC”: the binding signal (RPM ratio (pull-down/input)) amounted to 0.888.
Take “GATGATTGTTCTCCCAGCTGATGAATTGAAAGCATCGAGTAAACAAATTTTCCTAATCTTTCTGTTCAAGCGCCATCTAC”: the binding signal (RPM ratio (pull-down/input)) was 0.812.
“GATGATTGTTCTCCCAGCTGATGAATTCGCTTGATCGAGTAAACAAATTTTCCTAATCTTTCTGTTCAAGCGCCATCTAC”: the binding signal (RPM ratio (pull-down/input)) worked out at 0.676.
For the sequence “GATGATTGTTCTCCCAGCTGATGAATTGTGTCTTTCGAGTAAACAAATTTTCCTAATCTTTCTGTTCAAGCGCCATCTAC”, the binding signal (RPM ratio (pull-down/input)) is 2.09.
The same measure for “GATGATTGTTCTCCCAGCTGATGAATTCAAAAACTCGAGTAAACAAATTTTCCTAATCTTTCTGTTCAAGCGCCATCTAC”: 0.241; for “GATGATTGTTCTCCCAGCTGATGAATTGGGTACGTCGAGTAAACAAATTTTCCTAATCTTTCTGTTCAAGCGCCATCTAC”: 0.441.
Next, “GATGATTGTTCTCCCAGCTGATGAATTATGTGGTTCGAGTAAACAAATTTTCCTAATCTTTCTGTTCAAGCGCCATCTAC”: 3.12; “GATGATTGTTCTCCCAGCTGATGAATTGGGTTCTTCGAGTAAACAAATTTTCCTAATCTTTCTGTTCAAGCGCCATCTAC”: 0.562; “GATGATTGTTCTCCCAGCTGATGAATTTACTCTGTCGAGTAAACAAATTTTCCTAATCTTTCTGTTCAAGCGCCATCTAC”: 0.348.
“GATGATTGTTCTCCCAGCTGATGAATTAGTAGCATCGAGTAAACAAATTTTCCTAATCTTTCTGTTCAAGCGCCATCTAC”: the binding signal (RPM ratio (pull-down/input)) is 1.94.
Next, “GATGATTGTTCTCCCAGCTGATGAATTACAGGAATCGAGTAAACAAATTTTCCTAATCTTTCTGTTCAAGCGCCATCTAC”: 0.247; “GATGATTGTTCTCCCAGCTGATGAATTAAGACAATCGAGTAAACAAATTTTCCTAATCTTTCTGTTCAAGCGCCATCTAC”: 0.487; “GATGATTGTTCTCCCAGCTGATGAATTGGAGTGTTCGAGTAAACAAATTTTCCTAATCTTTCTGTTCAAGCGCCATCTAC”: 0.671.
On to “GATGATTGTTCTCCCAGCTGATGAATTTTGCAAATCGAGTAAACAAATTTTCCTAATCTTTCTGTTCAAGCGCCATCTAC”, for which the binding signal (RPM ratio (pull-down/input)) was found to be 0.874.
As to “GATGATTGTTCTCCCAGCTGATGAATTACGTCGGTCGAGTAAACAAATTTTCCTAATCTTTCTGTTCAAGCGCCATCTAC”, the binding signal (RPM ratio (pull-down/input)) came to 0.369.
For “GATGATTGTTCTCCCAGCTGATGAATTGTCCCGTTCGAGTAAACAAATTTTCCTAATCTTTCTGTTCAAGCGCCATCTAC”, the binding signal (RPM ratio (pull-down/input)) stood at 0.367.
Take “GATGATTGTTCTCCCAGCTGATGAATTTGTTTTATCGAGTAAACAAATTTTCCTAATCTTTCTGTTCAAGCGCCATCTAC”: the binding signal (RPM ratio (pull-down/input)) was found to be 6.46.
Next, “GATGATTGTTCTCCCAGCTGATGAATTACTTAAGTCGAGTAAACAAATTTTCCTAATCTTTCTGTTCAAGCGCCATCTAC”: 0.246.
“GATGATTGTTCTCCCAGCTGATGAATTTTCGCCGTCGAGTAAACAAATTTTCCTAATCTTTCTGTTCAAGCGCCATCTAC”: the binding signal (RPM ratio (pull-down/input)) was 0.57.
On to “GATGATTGTTCTCCCAGCTGATGAATTGGCAACATCGAGTAAACAAATTTTCCTAATCTTTCTGTTCAAGCGCCATCTAC”, for which the binding signal (RPM ratio (pull-down/input)) turned out to be 2.38.
Turning to “GATGATTGTTCTCCCAGCTGATGAATTGGATAAATCGAGTAAACAAATTTTCCTAATCTTTCTGTTCAAGCGCCATCTAC”, the binding signal (RPM ratio (pull-down/input)) is 0.23.
